This is one part of the list.
Assays:
HSkMC = human skeletal muscle cells; assay: cytotoxicity call (relative viability < 0.9); details: 10 µM
HepG2 = assay: cytotoxicity call (relative viability < 0.9); details: 10 µM
S. aureus RN4220 = assay: growth inhibition call (relative growth <= 0.2); details: 50 µM

Row | SMILES | cytotoxicity call (HSkMC) | cytotoxicity call (HepG2) | growth inhibition call (S. aureus RN4220)
1 | CC(C)NC(=O)N(C)C[C@@H]1OCCCC[C@H](C)Oc2ccc(NC(=O)Nc3ccc(C(F)(F)F)cc3)cc2C(=O)N([C@@H](C)CO)C[C@H]1C | inactive | inactive | inactive
2 | C[C@@H]1CN([C@H](C)CO)C(=O)Cc2cc(NC(=O)Cc3ccccc3)ccc2O[C@@H]1CN(C)S(C)(=O)=O | inactive | inactive | inactive
3 | C[C@@H]1CCCCO[C@H](CN(C)C(=O)Nc2cccc3ccccc23)[C@H](C)CN([C@@H](C)CO)C(=O)c2cc(NS(C)(=O)=O)ccc2O1 | inactive | inactive | inactive
4 | CC(C)N1CC2(CN([C@@H](C)c3ccc(Cl)cc3)C2)Oc2c(NC(=O)c3ccncc3)cccc2C1=O | inactive | inactive | inactive
5 | C[C@@H]1CCCCO[C@H](CN(C)Cc2ccc(Cl)c(Cl)c2)[C@@H](C)CN([C@@H](C)CO)C(=O)c2cc(NS(=O)(=O)c3ccccc3)ccc2O1 | active | active | inactive
6 | CCC(=O)Nc1ccc2c(c1)C(=O)N(C)C[C@@H](OC)[C@@H](C)CN(C(=O)CN1CCOCC1)[C@H](C)CO2 | inactive | inactive | inactive
7 | O=C(N[C@@H]1C=C[C@H](CC(=O)N2CCOCC2)O[C@H]1CO)c1ccccn1 | inactive | inactive | inactive
8 | C[C@H](CO)N1C[C@H](C)[C@@H](CN(C)Cc2ccc(-c3ccccc3)cc2)Oc2c(NC(=O)Nc3ccc(F)cc3)cccc2C1=O | inactive | inactive | inactive
9 | C[C@@H]1CN([C@@H](C)CO)C(=O)c2c(c3ccccc3n2C)-c2ccccc2CO[C@@H]1CN(C)Cc1ccc(O)cc1 | inactive | inactive | inactive
10 | CC(C)NC(=O)Nc1ccc2c(c1)C(=O)N([C@H](C)CO)C[C@H](C)[C@@H](CN(C)C(=O)C1CCCCC1)OCCCC[C@H](C)O2 | inactive | inactive | inactive
11 | C[C@H]1CN([C@@H](C)CO)C(=O)Cc2cc(NC(=O)Nc3cccc4ccccc34)ccc2O[C@@H]1CN(C)S(=O)(=O)c1ccc(F)cc1 | inactive | inactive | inactive
12 | COc1ccc(S(=O)(=O)Nc2cccc3c2O[C@@H](CN(C)S(=O)(=O)c2c(C)noc2C)[C@@H](C)CN([C@H](C)CO)C3=O)cc1 | inactive | inactive | inactive
13 | Cc1ccc(S(=O)(=O)NCC[C@@H]2CC[C@@H](NS(=O)(=O)c3ccccc3Cl)[C@@H](CO)O2)cc1 | inactive | inactive | inactive
14 | COc1ccc(C#Cc2ccc3c(c2)O[C@@H](CN(C)S(=O)(=O)c2ccccc2F)[C@H](C)CN([C@@H](C)CO)S3(=O)=O)cc1 | inactive | inactive | inactive
15 | C[C@H](CO)N1C[C@H](C)[C@@H](CN(C)S(=O)(=O)c2ccc(F)cc2)Oc2ccc(NC(=O)Cc3ccccc3)cc2CC1=O | inactive | inactive | inactive
16 | COc1ccc(NC(=O)Nc2ccc3c(c2)CC(=O)N([C@H](C)CO)C[C@H](C)[C@H](CN(C)S(=O)(=O)c2c(C)noc2C)O3)cc1 | inactive | inactive | inactive
17 | Cc1noc(C)c1S(=O)(=O)Nc1ccc2c(c1)C(=O)N([C@@H](C)CO)C[C@H](C)[C@@H](CN(C)C)OCCCC[C@@H](C)O2 | inactive | inactive | inactive
18 | C[C@H](CO)N1C[C@H](C)[C@H](CN(C)CC2CCOCC2)Oc2ncc(C#CCc3ccccc3)cc2C1=O | inactive | inactive | inactive
19 | C[C@H](CO)N1C[C@H](C)[C@H](CN(C)CC2CCCCC2)Oc2ccc(NC(=O)Nc3cccc4ccccc34)cc2C1=O | inactive | inactive | inactive
20 | N[C@@H](Cc1ccc(O)cc1)C(=O)O | inactive | inactive | inactive
21 | C[C@H](CO)N1C[C@H](C)[C@H](CN(C)C(=O)Nc2ccccc2)Oc2c(NC(=O)Nc3cccc4ccccc34)cccc2C1=O | inactive | inactive | inactive
22 | C[C@H](CO)N1C[C@H](C)[C@H](CN(C)C(=O)Nc2ccccc2C(F)(F)F)OCc2cn(nn2)CCCC1=O | inactive | inactive | inactive
23 | O=C(C[C@H]1CC[C@H]2[C@@H](COC[C@H](O)CN2C(=O)c2ccncc2)O1)NC1CCC1 | inactive | inactive | inactive
24 | CCOC(=O)C(CCc1ccccc1)NC(C)C(=O)N1Cc2cc(OC)c(OC)cc2CC1C(=O)O.Cl (stereo not given) | inactive | inactive | inactive
25 | Cc1ccc(S(=O)(=O)N(C)C[C@@H]2Oc3ccc(NC(=O)CCN4CCOCC4)cc3CC(=O)N([C@H](C)CO)C[C@H]2C)cc1 | inactive | inactive | inactive

Reference: the antibiotic and cytotoxicity screens of Wong et al. (2023)
